Assay results as given in PubChem BioAssay AID1745853 (National Center for Advancing Translational Sciences (NCATS), 2022).
The other results are listed elsewhere or left out. Shown are side measurements of this screen, not its main read-out; they come without a call.

Tests used:
Assay in all cases: Primary Screen for Target Class Profiling of Small Molecule Inhibitors of Methyltransferases
[1] = biological target: Glycine N-methyltransferase (Homo sapiens) (UniProt Q14749); conditions: purified enzyme, MTase-Glo SAH luminescence; measured here: GNMT inhibition; at 40 µM; stronger effect = lower value
How it was run: (§1)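 Each enzyme was reacted with SAM and its substrate, with compounds tested once at 40 uM; SAH formed was read by MTase-Glo luminescence.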

[2] = biological target: Guanidinoacetate N-methyltransferase (Homo sapiens) (UniProt Q14353); conditions: purified enzyme, MTase-Glo SAH luminescence; measured here: GAMT inhibition; at 40 µM; stronger effect = lower value
How it was run: as §1

[3] = biological target: Histamine N-methyltransferase (Homo sapiens) (UniProt P50135); conditions: purified enzyme, MTase-Glo SAH luminescence; measured here: HNMT inhibition; at 40 µM; stronger effect = lower value
How it was run: as §1

[4] = biological target: Nicotinamide N-methyltransferase (Homo sapiens) (UniProt P40261); conditions: purified enzyme, MTase-Glo SAH luminescence; measured here: NNMT inhibition; at 40 µM; stronger effect = lower value
How it was run: as §1

[5] = biological target: Phenylethanolamine N-methyltransferase (Homo sapiens) (UniProt P11086); conditions: purified enzyme, MTase-Glo SAH luminescence; measured here: PNMT inhibition; at 40 µM; stronger effect = lower value
How it was run: as §1
% is set by controls: 0 for no effect and ±100 for the full control effect.

Compound	activity change, negative = inhibition [1]	activity change, negative = inhibition [2]	activity change, negative = inhibition [3]	activity change, negative = inhibition [4]	activity change, negative = inhibition [5]
O=C(C[C@@H]1C[C@H]2O[C@H](CNC3CCOCC3)[C@@H](O)[C@H]2O1)N1CCC(F)(F)C1	-3.77%	-13.1%	-2.15%	-17.3%	-15.5%
COc1ccc2cc1Nc1ccc(cc1)C[C@H](NCc1ccc(C)o1)C(=O)N(C)[C@H](C(=O)NCCC(C)C)C2	-5.4%	-8.12%	-6.57%	-8.21%	-14.8%
CC(=O)O[C@H]1Cc2ccccc2N(C(N)=O)c2ccccc21	-0.192%	0.789%	0.421%	-6.46%	2.1%
Cc1nnnn1CC(=O)N1CCCC(c2ccccc2)(c2ccccc2)C1	-7.07%	-7.88%	-2.93%	-16%	-7.25%
C=C1CC[C@@H]2[C@](C)(CO)[C@H](O)CC[C@@]2(C)[C@@H]1CC(O)C1=CCOC1=O (stereo partly specified)	4.57%	7.54%	6.32%	-6.11%	6.8%
CC#CC(=O)N1CCCC(C(=O)Nc2ccc(-c3cccc(OC)c3)cc2)C1 (stereo unspecified)	-8.62%	-9.79%	-2.95%	-13.3%	-7.63%
CCOC(=O)c1cccc(NC(=O)Cn2c(=O)oc3cc(S(=O)(=O)N4CCCC4)ccc32)c1	0.901%	4.29%	-0.923%	-2.49%	-24%
COc1ccc(C#Cc2ccc(C(=O)N3CCC[C@@H](O)C3)c(F)c2)cc1	-7.35%	-21.4%	-0.117%	-33.4%	-0.092%
CCCOc1ccc(CN2C(=O)c3cc4ccccc4n3CC2(C)C(=O)NCc2ccccc2)cc1 (stereo unspecified)	0.872%	0%	1.22%	-1.91%	-4.5%
O=C(Nc1ccc(C(F)(F)F)cn1)N1CCN(c2ncccc2C(F)(F)F)CC1	-5.96%	-1.95%	4.31%	-15%	-54.6%
CC(C)=CCC[C@](C)(OC1OC(COC2OCC(O)C(O)C2O)C(O)C(O)C1O)[C@H]1CC[C@]2(C)[C@@H]1[C@H](O)C[C@@H]1[C@@]3(C)CC[C@H](OC4OC(CO)C(O)C(O)C4OC4OC(CO)C(O)C(O)C4O)C(C)(C)[C@@H]3CC[C@]12C (stereo partly specified)		27.2%		10.3%	11.9%
Cc1ccc(-c2n[nH]n3c2nc(=O)c2ccc(C(=O)NCc4ccc5c(c4)OCO5)cc23)cc1	-16.6%	-5.02%	-2.15%	-10.5%	-2.92%
COC(=O)c1ncn2c1C(=O)N(Cc1ccco1)C(C)(C(=O)NC1CCCC1)C2 (stereo unspecified)	3.12%	0%	-1.25%	3.66%	0.088%
Cc1ccc(C(=O)N(CCCN)C(c2nc3cc(Cl)ccc3c(=O)n2Cc2ccccc2)C(C)C)cc1 (stereo unspecified)	5.35%	5.81%	5.37%	-16.8%	0.873%
CCCN1CCC(N2C[C@H]3OC(=O)N(CCc4cccc(Cl)c4)[C@H]3C2)CC1	-10.5%	-18.1%	-24.9%	-19.8%	-18.8%
CC1(C)CC[C@@]2(C(=O)O[C@@H]3O[C@H](CO)[C@@H](O)[C@H](O)[C@H]3O)C(C1)C1=CCC3[C@@]4(C)CC[C@@H](O[C@@H]5O[C@H](C(=O)O)[C@@H](O[C@@H]6OC[C@@H](O)[C@H](O)[C@H]6O)[C@H](O[C@@H]6OC[C@](O)(CO)[C@H]6O)[C@H]5O)C(C)(C)C4CC[C@@]3(C)[C@]1(C)C[C@H]2O (stereo partly specified)	0%	1.37%	-0.905%	-9.97%	2.6%
O=c1c2ccccc2n2c(-c3ccc(F)c(F)c3)nnc2n1Cc1ccccc1Cl	-30.5%	3.79%	-5.52%	-3.25%	-3.11%
CN1CCN(C(=O)c2ccc3cc(CCNc4ncnc5ccc(C#N)cc45)ccc3c2)CC1	-56.6%	-8.77%	8.09%	-15.5%	-0.344%
CCc1cccc(-n2nnnc2N2CCN(C(=O)Cc3ccc(C)c(F)c3)CC2)c1	-8.56%	-6.51%	-3.4%	-25.3%	-9.05%
CC1=C2CC(C)(C)CC2C(O)C2=C(C1)C(=O)OC2O (stereo unspecified)	3.33%	3.27%	9.31%	-12.5%	5.84%
COc1ccc(OC)c(-c2cc(Cl)c3c(c2)CC(CNC(=O)c2c(F)cccc2F)O3)c1 (stereo unspecified)	-5.13%	-8.25%	-4.42%	-11.4%	-13.5%
CN(C)c1cccc(-c2cnc(Nc3cnccn3)c3c2CCO3)c1	-6.71%	-0.95%	-4.91%	-7.77%	0.697%
CCc1cc2c(cc3n2CC(C)(C(=O)NC2CCCCC2)N(Cc2ccccc2Cl)C3=O)s1 (stereo unspecified)	-2.73%	4.09%	1.61%	1.68%	-1.09%
COCc1cc(C[C@@H]2CC[C@H](O)[C@@H](CNCc3ccc(Cl)cc3)O2)no1	-5.87%	-6.84%	-4.24%	-10.3%	-7.09%
CC(=O)NC1C(OC2CCC3(C)C(CCC4(C)C3CC=C3C5CC(C)(C)CCC5(C(=O)O)C(O)CC34C)C2(C)C)OC(CO)C(O)C1O (stereo unspecified)	0%	-7.02%	4.51%	-20.5%	-14.2%
Cc1cc2ncc(C(=O)NC(C)CCc3ccccc3)cn2n1 (stereo unspecified)	-8.27%	-9.12%	-5.38%	-8.56%	-10.4%
COc1ccccc1CCN1CCCC(CN(C)C(=O)CN2C(=O)CNC2=O)C1 (stereo unspecified)	-1.95%	-2.12%	-1.39%	-4.89%	3.12%

Compound	activity change, negative = inhibition [1]	activity change, negative = inhibition [2]	activity change, negative = inhibition [3]	activity change, negative = inhibition [4]	activity change, negative = inhibition [5]
CC1CCC(NC(=O)C2(C)Cn3c(ccc3-c3ccccc3)C(=O)N2Cc2cccc(Cl)c2)CC1 (stereo unspecified)	5.54%	0%	2.8%	4.7%	2.12%
COc1ccccc1N1C(=O)c2cc3ccccc3n2CC1(C)C(=O)NCCC(C)C (stereo unspecified)	6.27%	1.48%	1.79%	6.4%	-0.546%
O=C(c1ccccc1OCC1CCCNC1)N1CCOCC1 (stereo unspecified)	-3.7%	-5.61%	-0.682%	-4.58%	-1.35%
COc1cc2ncnc(Nc3cccc(O)c3)c2cc1OC	-2.21%	2.43%	1.3%	-20.6%	-1.16%
CCCSCCCN1C(=O)c2cc(-c3ccc(CC)cc3)nn2CC1(C)C(=O)NC1CCCCC1 (stereo unspecified)	0.568%	5.96%	2.02%	2.02%	-3.24%
CCn1ccnc1CNC(=O)c1cc(OC)ccc1OC1CCN(C(=O)C2CC2)CC1	-1.22%	0.256%	-0.163%	2.92%	3.95%
Clc1ccc(CN[C@H]2CCN(c3ncc(Br)cn3)C2)c(Cl)c1	0.415%	7.94%	11%	-18%	-0.363%
CSc1ccc(CNC(=O)c2cc3n(n2)CC(C)(C(=O)NC2CCCCCC2)N(C)C3=O)cc1 (stereo unspecified)	-3.65%	-1.94%	0.955%	-2.6%	-9.74%
CC1(C(=O)NCc2ccc(F)cc2)Cn2cnc(C(=O)Nc3cc(F)ccc3F)c2C(=O)N1C1CC1 (stereo unspecified)	-7.45%	2.56%	-4.48%	-7.82%	-3.94%
CC1CCN(S(=O)(=O)c2ccc3c(ccn3CC(=O)NCc3cccs3)c2)CC1	5.67%	0.277%	6.97%	0.996%	-9.64%
CCCn1c(=O)c2cc(F)ccc2n2c(SCC(=O)NCc3ccccc3Cl)nnc12	-1.96%	0.153%	7.87%	-4.51%	1.9%
CC1=C(C(=O)OC2OC(COC3OC(CO)C(O)C(O)C3O)C(O)C(O)C2O)C(C)(C)CCC1 (stereo unspecified)	2.93%	2.36%	5.61%	-11.2%	-5.41%
O=C(CCc1nnc2n(CCc3ccccc3)c(=O)c3ccccc3n12)NC1CCN(Cc2ccccc2)CC1	-3.59%	0%	-19.4%	7.61%	-3.28%
NC1=N[C@@]2(c3cc(NC(=O)c4ccc(F)cn4)ccc3F)COC[C@H]2CS1		-4.17%		-15.6%	-9.47%
CC1c2cccn2CCN1C(=O)Nc1ccc(F)cc1F (stereo unspecified)	-7.04%	2%	-7.22%	-19.4%	-6.68%
C/C(=C\CC[C@@H](C)[C@H]1CC(O)[C@@]2(C)C3CC[C@H]4C(C)(C)[C@@H](OC5OCC(O)C(O)C5OC5OC(CO)C(O)C(O)C5O)CC[C@@]45C[C@@]35CC(O)[C@]12C)C(=O)O (stereo partly specified)	-0.546%	-8.71%	1.17%	-20.2%	1.24%
O=C(NCc1ccc2c(c1)OCO2)c1n[nH]nc1Nc1ccc(Cl)cc1	0.309%	0%	7.82%	0.07%	5.31%
CCOc1ncc(S(=O)(=O)N2CCN(CC)CC2)cc1-c1nc2c(CC)n(CCOC)nc2c(=O)[nH]1	4.49%	5.05%	11%	-14.7%	0.815%
COc1ccc2cc3n(c2c1)CC(C)(C(=O)NC1CCCCC1)N(CCc1ccccc1)C3=O (stereo unspecified)	-1.2%	4.25%	2.41%	-4.58%	-0.978%
COCc1noc([C@@H]2CN(C(=O)C3CC=CCC3)C[C@H]2C(N)=O)n1 (stereo partly specified)	-1.67%	0.711%	0.569%	2.12%	-1%
C=CCOc1cc(Cl)ccc1C(=O)NCCN(CC)CC	-6.17%	-4.97%	-3.42%	-13.5%	-2.87%
CCc1ccc(S(=O)(=O)c2nnn3c2nc(NCc2cccc(OC)c2)c2ccccc23)cc1	-3.07%	2.88%	-4.04%	1.63%	-5.62%
Cc1nc(-c2cn(C3CCCN(C(=O)c4ccc(Cl)s4)C3)nn2)no1 (stereo unspecified)	-5.86%	-0.749%	-2.16%	-6.36%	-7%
CN1CCC(N(Cc2cccs2)c2ccccc2)CC1	1.63%	9.14%	-20.2%	-18.3%	-5.76%
O=C1CCN(C(=O)CCc2nc3ccccc3s2)CCCCCCN1	-1.44%	-1.83%	0.004%	1.17%	-5.01%
CCCSCCCNC(=O)c1cc2n(n1)CC(C)(C(=O)NC1CCCCCC1)N(C)C2=O (stereo unspecified)	-2.02%	-4.09%	-7.03%	-0.684%	-8.17%
C[C@@H]1O[C@@H](O[C@@H]2[C@@H](O)[C@H](O[C@H]3[C@H](O[C@H]4CC[C@@]5(C)C(CC[C@]6(C)C5CC=C5[C@@H]7CC(C)(C)CC[C@]7(C(=O)O[C@@H]7O[C@H](CO)[C@@H](O)[C@H](O)[C@H]7O[C@@H]7O[C@@H](C)[C@H](O[C@@H]8O[C@@H](C)[C@H](O)[C@@H](O)[C@H]8O)[C@@H](O)[C@H]7O)CC[C@]56C)[C@@]4(C)CO)O[C@H](C(=O)O)[C@@H](O)[C@@H]3O)O[C@H](CO)[C@H]2O)[C@H](O)[C@H](O)[C@H]1O (stereo partly specified)	0.529%	2.91%	11%	-8.38%	2.06%
